Laboratory results from PubChem BioAssay AID759 (NMMLSC, 2007).
In all, about 190,000 compounds went through this assay and about 270 (0.14%) were called active. The shares of active, inactive and inconclusive entries below differ from those in the screen.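 How the source made its calls: active means GTP binding activity at least 20% away from the 100% baseline, either lowered as inhibitor or raised as activator; inconclusive means flagged as likely green fluorescent, judged across all proteins in the well; inactive means the rest.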

Target: GTPase HRas (Homo sapiens) (UniProt P01112)
Assay: HRas wt fluorescent GTP binding changes, either direction – biochemical, wildtype, bead-based flow cytometry, multiplex, primary screen (AID 759);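 further: 0% = unlabeled GTP competition control and 100% = no-compound control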
Settings: GST-Ras wt beads, Bodipy-FL-GTP binding, at 10 µM, actives lie on both sides

Sequence of UniProt P01112 (P01112 whole entry, looked up): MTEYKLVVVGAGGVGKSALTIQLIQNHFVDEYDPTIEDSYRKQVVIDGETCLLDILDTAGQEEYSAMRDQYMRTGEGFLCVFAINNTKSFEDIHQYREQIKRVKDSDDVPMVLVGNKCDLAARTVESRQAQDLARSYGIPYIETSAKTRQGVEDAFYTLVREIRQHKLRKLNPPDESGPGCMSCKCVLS

GTP binding activity, inconclusive:
CCC(CC)C1=NN2C(=N)/C(=C\c3cc(C)n(-c4cccc(C)c4)c3C)C(=O)N=C2S1 83%, COc1ccc(-c2csc3ncn(-c4ccc(C)cc4)c(=O)c23)cc1OC 94%, COc1ccc(CCNC(=O)CSc2ccsc2[N+](=O)[O-])c(OC)c1 87%, CCOc1ccc(NC(=O)CC2C(=O)Nc3ccccc3N2C(=O)c2ccccc2)cc1 (stereo not given) 96%, Cc1ccc(-c2nnn(CC(=O)N(c3ccc4c(c3)OCCO4)C(C(=O)NCC3CCCO3)c3ccc(F)cc3)n2)o1 (stereo not given) 95%, COc1ccc(Cn2c(=O)[nH]c3cc(C(=O)NC4CCN(Cc5ccccc5)CC4)ccc32)cc1 95%, CCCCn1c(CNC(C)=O)nc2ccccc21 102%, COc1ccc(CNc2nc3nc(C)cc(C)n3n2)cc1 104%, O=C(CSc1nnc2c3ccccc3c3ccccc3c2n1)Nc1ccccc1 93%, CCOc1cc(C#N)c(NC(=O)Cn2nnc3ccccc32)cc1OCC 97%, CCCN1C(=O)C(O)(C2COC(C)(C)CC2=O)c2ccccc21 (stereo not given) 98%, Cc1cc(=O)n2nc(N3CCCC3C(=O)NCCCN3CC(C)CC(C)C3)sc2n1 (stereo not given) 105%, CC1=C(C(=O)OCc2ccc(C)cc2)C(c2ccc(O)c([N+](=O)[O-])c2)NC(=O)N1 (stereo not given) 89%, Cc1csc(NC(=O)C2CCN(S(=O)(=O)c3cccs3)CC2)n1 93%, O=C(CSc1nnnn1-c1ccccc1)Nc1nsc(-c2ccc(Cl)cc2)n1 104%

GTP binding activity, active:
CCOC(=O)c1cc(C(=O)OCC)c(=O)[nH]c1N1CCCC1 57%, COc1cccc(Nc2ccccc2C(=O)O)c1 120% [activator]

GTP binding activity, inactive:
Clc1ccc(Cn2ncc3c(N4CCCC4)ncnc32)cc1 100%, O=C(COc1ncnc2cc([N+](=O)[O-])ccc12)NCCc1ccc(Cl)cc1 84%, Cc1ccc(S(=O)(=O)N2CCCC(C(=O)Nc3ccc(C(=O)O)cc3)C2)cc1Cl (stereo not given) 96%, CN1CCN(CCC(=O)N2c3ccccc3Sc3ccc(Cl)cc32)CC1 100%, Cc1nn(-c2ccccc2)c2sc(-c3nnc(SCC(=O)O)o3)cc12 96%, Cc1ccc(N2CCN(c3ccc(C)cc3)C2c2ccncc2)cc1 101%, COc1ccc(OC)c(NC(=O)CSc2ccc3nnc(-c4cccnc4)n3n2)c1 100%, CC(C)NC(=O)COc1nncc2ccccc12 98%
